IntAct's records for PubMed 19151134

B1: Adrenocorticotropic hormone receptor (Homo sapiens), Q01718 (parent)
chain: MKHIINSYENINNTARNNSDCPRVVLPEEIFFTISIVGVLENLIVLLAVFKNKNLQAPMYFFICSLAISDMLGSLYKILENILIILRNMGYLKPRGSFETTADDIIDSLFVLSLLGSIFSLSVIAADRYITIFHALRYHSIVTMRRTVVVLTVIWTFCTGTGITMVIFSHHVPTVITFTSLFPLMLVFILCLYVHMFLLARSHTRKISTLPRANMKGAITLTILLGVFIFCWAPFVLHVLLMTFCPSNPYCACYMSLFQVNGMLIMCNAVIDPFIYAFRSPELRDAFKKMIFCSRYW
partner: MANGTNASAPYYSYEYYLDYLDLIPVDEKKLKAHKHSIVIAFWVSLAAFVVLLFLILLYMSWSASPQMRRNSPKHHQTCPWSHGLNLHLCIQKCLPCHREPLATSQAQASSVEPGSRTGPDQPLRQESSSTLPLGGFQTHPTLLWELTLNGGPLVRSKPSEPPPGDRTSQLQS

Variants of: B1
Conditions: with q8tcy5-1 MRAP

effect of a mutation on the interaction | Variant
disrupting interaction strength | MKHIINSYENINNTARNNSDCPRVVLPEEIFFTISIVGVLENLIVLLAVFKNKNLQAPMYFFICSLAISDMLGSLYKILENILIILRNMGYLKPRGSFETTADDIIDSLFVLSLLGSIFSLSVIAADRCITIFHALRYHSIVTMRRTVVVLTVIWTFCTGTGITMVIFSHHVPTVITFTSLFPLMLVFILCLYVHMFLLARSHTRKISTLPRANMKGAITLTILLGVFIFCWAPFVLHVLLMTFCPSNPYCACYMSLFQVNGMLIMCNAVIDPFIYAFRSPELRDAFKKMIFCSRYW [Y129C]
with no effect | MKHIINSYENINNTARNNSDCPRVVLPEEIFFTISIVGVLENLIVLLAVFKNKNLQAPMYFFICSLAISDMLGSLYKILENILIILRNMGYLKPRGSFETTADDIIDSLFVLSLLGSIFSLSVIAADRYITIFHALRYHSIVTMRRTVVVLTVIWTFCTGTGITMVIFSHHVPTVITFTSLFPLMLVFILCLYVHMFLLARSHTRKISTLPRANMKGAITLTILLGVFIFCWAPFVLHVLLMTFCPSNPYCACYMSLFQVNGMLIMCNAVIDPFIYACRSPELRDAFKKMIFCSRYW [F278C]
disrupting interaction strength | MKHIINSYENINNTARNNSDCPRVVLPEEIFFTISIVGVLENLIVLLAVFKNKNLQAPMYFFICSLAISDMLGSLYKILENILIILRNMGYLKPRGSFETTADDIIDSLFVLSLLGSIFSLSVIAADRCITIFHALRYHSIVTMRRTVVVLTVIWTFCTGTGITMVIFSHHVPTVITFTSLFPLMLVFILCLYVHMFLLARSHTRKISTLPRANMKGAITLTILLGVFIFCWAPFVLHVLLMTFCPSNPYCACYMSLFQVNGMLIMCNAVIDPFIYACRSPELRDAFKKMIFCSRYW [Y129C;F278C]

Variants of: B1
Conditions: with q8tcy5-1 MRAP
Remark: another data set of the same source

effect of a mutation on the interaction | Variant
with no effect | MKHIINSYENINNTARNNSDCPRVVLPEEIFFTISIVGVLENLIVLLAVFKNKNLQAPMYFFICSLAISDMLGSLYKILENILIILRNMGYLKPRGSFETTADDIIDSLFVLSLLGSIFSLSVIAADRCITIFHALRYHSIVTMRRTVVVLTVIWTFCTGTGITMVIFSHHVPTVITFTSLFPLMLVFILCLYVHMFLLARSHTRKISTLPRANMKGAITLTILLGVFIFCWAPFVLHVLLMTFCPSNPYCACYMSLFQVNGMLIMCNAVIDPFIYAFRSPELRDAFKKMIFCSRYW [Y129C]
